Experimental data reported in article PMC6162344 (Molecular Cell, 2018).
Blank lines part the entries; values can stand above or below the binder they belong to.

Key:
[1] = target: CENP-Q (human, UniProt Q7L2Z9 1-268); test: AUC
[2] = target: CENP-LN (human, UniProt Q8N0S6; Q96H22); test: pull-down
[3] = target: CENP-HI^Δ56KM (human, UniProt Q9H3R5; Q92674; Q9BS16; Q9NSP4); test: pull-down

Sequence of UniProt Q7L2Z9 (Q7L2Z9 whole entry): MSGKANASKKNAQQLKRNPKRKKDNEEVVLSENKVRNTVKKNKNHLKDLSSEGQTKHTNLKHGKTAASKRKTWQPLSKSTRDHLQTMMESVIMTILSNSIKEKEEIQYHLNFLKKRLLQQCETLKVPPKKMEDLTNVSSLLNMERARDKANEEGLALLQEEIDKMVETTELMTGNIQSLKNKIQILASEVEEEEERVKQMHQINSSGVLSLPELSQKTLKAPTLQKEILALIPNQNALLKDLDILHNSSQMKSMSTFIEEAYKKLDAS

- stoichiometry N [1]: 1
B1: CENP-U (natural protein)
chain: not shown

- binding result [2]: binds
- binding result [3]: binds
B2: CENP-C^[…]-SNAP (domain or fragment)
chain: not shown
modifications: biotinylated benzylguanin (Snap-biotin) on the SNAP tag
